The whole screen tested about 310,000 compounds, of which about 11,000 (3.5%) were called active. The inconclusive results got no clear call from the source; some entries with a clear call stand among them for comparison. Calls come from the whole dose curve; as a rule, active = well fitted inhibition curve with a large enough effect; inconclusive = small, poorly fitted or top-dose-only effect, or effect the other way; inactive = flat fitted curve, though single readings scatter. No potency is given beside an inconclusive call; the fits are too rough.
Experiment: VP16 counterscreen qHTS for inhibitors of ROR gamma transcriptional activity;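 note: Gal4-VP16 expression switched on by copper sulfate through the metallothionein promoter; nearly all actives have a fitted effect of over 50% in size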
Settings: Drosophila S2 Gal4-VP16 UAS-luciferase, luminescence, 20 h; activity, negative = inhibition: at 53.6 µM (top of the series)
% is set by controls: 0 for no effect and ±100 for the full control effect; potency is the fitted concentration of half-maximal effect; tags give direction and shape of the fitted curve.

With `CCOc1ccc(/C=N/NC(=S)NC2CC3CCC2C3)cc1` (stereo unspecified) as the molecule, how does the Potency read?
Its Potency is inconclusive [inhibitor, full curve].

With `CN1C(=S)N(c2cccnc2)C(=O)/C1=C\c1ccc(C(C)(C)C)cc1` as the molecule, how does the Potency read?
The Potency was inconclusive [inhibitor, single point].

For `N=C1S/C(=C\c2ccco2)C(=O)N1c1nccs1`, which Potency is on record?
Its Potency is active: 0.224 µM.

Which “activity, negative = inhibition” value does the source give for `Cc1cccc(NC(=O)C2CCCN(S(=O)(=O)c3cccc4nsnc34)C2)c1` (stereo unspecified) here?
Its value is inactive: -7.61%.

With `CCN(CC)CCN(C(=O)C1CCCCC1)c1nc2cc3c(cc2s1)OCO3` as the molecule, how does the “activity, negative = inhibition” value read?
Its value is inactive: -17.3%.

For `COc1ccc(N2CCN(C(=O)CCc3ccc(S(=O)(=O)NCC(C)C)cc3)CC2)cc1`, which Potency is on record?
Its Potency is inconclusive [inhibitor, single point].

Which Potency does the source give for `CCOc1ccc(CNC(=S)N/N=C/c2ccc(OC)c(OC)c2)cc1` here?
Its Potency is active: 10 µM.

For `CC1=NN(Cc2ccccc2)C(=O)C1C(c1ccncc1)C(C#N)C#N` (stereo unspecified), which Potency is on record?
Its Potency is inconclusive [inhibitor, single point].

With `N#Cc1nc(COc2ccc(-c3ccccc3)cc2)oc1NCc1cccnc1` as the molecule, how does the Potency read?
The Potency was inconclusive [inhibitor, single point].

Which Potency does the source give for `CC1CN(CC(=O)Nc2ccccc2Sc2ccccc2)CC(C)O1` (stereo unspecified) here?
The Potency was inconclusive [inhibitor, single point].

For `Cc1ccc(C)c(OCc2cc(C(=O)N3C[C@@H](C)O[C@@H](C)C3)no2)c1`, which Potency is on record?
The Potency was inconclusive [activator, single point].

Which Potency does the source give for `O=C1c2cccc3cccc(c23)C(=O)N1CCN1CCN(CC(O)COc2ccc3ccccc3c2)CC1` (stereo unspecified) here?
Its Potency is active: 11.2 µM.

Which “activity, negative = inhibition” value does the source give for `Cc1ccc(N2C(=O)C(F)(F)C2c2ccccc2)cc1` (stereo unspecified) here?
The value was inactive: 7.88%.

With `Cc1cc2nc(CSc3ccc(Cl)cc3)cc(=O)n2[nH]1` as the molecule, how does the Potency read?
The Potency was inconclusive [inhibitor, single point].

For `O=C(CO/N=C/c1ccc(OC(F)F)cc1)NC1CCCC1`, which “activity, negative = inhibition” value is on record?
The value was inactive: -3.7%.

With `CC1(C)CC(=O)c2c(oc3ccc(NS(=O)(=O)c4cccc5cccnc45)cc23)C1` as the molecule, how does the Potency read?
Its Potency is inconclusive [inhibitor, single point].

With `Cc1ccc(N/N=C/c2ccncc2)cc1` as the molecule, how does the “activity, negative = inhibition” value read?
The value was inactive: 29.8%.

With `C/C(=N\NC(=S)NC1CCCCC1)c1cccs1` as the molecule, how does the Potency read?
Its Potency is active: 0.794 µM.

With `COc1ccc(NC(NC(=O)c2ccc(OC)cc2)C(Cl)(Cl)Cl)cc1` (stereo unspecified) as the molecule, how does the Potency read?
Its Potency is inconclusive [inhibitor, single point].

For `O=C(CSCc1ccc(Cl)cc1)Nc1cc([N+](=O)[O-])ccc1O`, which Potency is on record?
The Potency was inconclusive [inhibitor, single point].

Which “activity, negative = inhibition” value does the source give for `Cc1ccc(S(=O)(=O)Nc2cnn(-c3ccccc3)c(=O)c2Cl)cc1` here?
Its value is inactive: -24.9%.

Which “activity, negative = inhibition” value does the source give for `O=C(COc1ccccc1Cl)N1CCCCCCC1` here?
Its value is inactive: -6.99%.

Which Potency does the source give for `Cc1cc(/C=N/NC(N)=S)c(C)n1-c1cccc(Cl)c1` here?
Its Potency is active: 10 µM.

Which Potency does the source give for `CC1CCN(S(=O)(=O)c2ccc(S(=O)(=O)N3CCC4(CC3)OCCO4)cc2)CC1` here?
Its Potency is inconclusive [activator, single point].

For `NC(=O)c1ccccc1OCC(=O)N1CCc2ccccc2C1`, which “activity, negative = inhibition” value is on record?
Its value is inactive: -13.3%.

With `Cc1ccc(C(=O)N/C(=C/c2ccc(-c3ccc(Br)cc3)o2)C(=O)NC2CCS(=O)(=O)C2)cc1` (stereo unspecified) as the molecule, how does the Potency read?
Its Potency is inconclusive [inhibitor, single point].

Which Potency does the source give for `Cc1ccc(-c2csc(=S)[nH]2)cc1` here?
Its Potency is inconclusive [inhibitor, partial curve].

Which “activity, negative = inhibition” value does the source give for `Cc1ccccc1-c1ccc2ncnc(NCCN3CCOCC3)c2c1` here?
Its value is inactive: -23.1%.

Which Potency does the source give for `O=C(Nc1ccc2c(c1)OCCO2)c1ccc(Br)o1` here?
Its Potency is inconclusive [inhibitor, partial curve].

With `O=C(NNC(=S)Nc1ccc(Br)cc1Cl)c1ccncc1` as the molecule, how does the Potency read?
The Potency was active: 20 µM.

With `Clc1ccc(SCc2cc(N3CCOCC3)nc(-c3ccccn3)n2)cc1` as the molecule, how does the Potency read?
Its Potency is active: 4.47 µM.

For `O=C(CON=C1c2ccccc2-c2ccccc21)NC12CC3CC(CC(C3)C1)C2`, which Potency is on record?
The Potency was inconclusive [inhibitor, single point].

For `O=C(NN=C1CCN(Cc2ccccc2)CC1)c1ccccc1O`, which Potency is on record?
Its Potency is inconclusive [inhibitor, single point].

Which “activity, negative = inhibition” value does the source give for `CCOC(=O)c1[nH]c2c(c1C)C(=O)CC(c1ccc(OCC)c(OC)c1)C2` (stereo unspecified) here?
Its value is inactive: 6.2%.

For `Cc1ccc(-n2nnnc2-c2cnc(N3CCCC3)nc2C(F)(F)F)cc1`, which Potency is on record?
The Potency was active: 15.8 µM.

Which Potency does the source give for `COC(=O)C1=C(C)N(C)C(=S)NC1c1ccc(OC)cc1OC` (stereo unspecified) here?
Its Potency is inconclusive [inhibitor, single point].

For `Cc1nc(Oc2ccccc2)c2ccsc2n1`, which Potency is on record?
The Potency was inconclusive [inhibitor, single point].

With `COc1cc(C(=O)Oc2ccccc2/C=N/NC(=O)c2ccc(Cl)cc2Cl)cc(OC)c1OC` as the molecule, how does the Potency read?
Its Potency is active: 11.2 µM.

For `CCOC(=O)CN(C)C(=O)C1CC(CO[Si](C)(C)C(C)(C)C)=CN1C(=O)OC(C)(C)C` (stereo unspecified), which “activity, negative = inhibition” value is on record?
The value was inactive: 8.89%.

With `Cc1cc(C)nc(NS(=O)(=O)c2ccc(N/C=C\C(=O)c3ccc(Cl)cc3)cc2)n1` as the molecule, how does the Potency read?
Its Potency is inconclusive [inhibitor, single point].

For `COc1ccc(-c2csc(C)n2)cc1OC`, which Potency is on record?
The Potency was inconclusive [inhibitor, single point].

Which “activity, negative = inhibition” value does the source give for `O=C(O)c1ccc2c(c1)C(=O)/C(=C\c1ccco1)C2=O` here?
The value was inactive: 2.96%.

Which Potency does the source give for `Cc1ccc(C)c(OCc2cc(C(=O)N(C)Cc3nccs3)no2)c1` here?
Its Potency is inconclusive [inhibitor, single point].

For `Cc1ccc2cc(C#N)c(NCCNC(=S)NCCCN3CCOCC3)nc2c1`, which Potency is on record?
Its Potency is inconclusive [inhibitor, single point].

For `CC(C)(C)c1cc(CP(=O)(c2ccccc2)c2ccccc2)cc(C(C)(C)C)c1O`, which Potency is on record?
The Potency was inconclusive [inhibitor, single point].

For `COc1cc(/C=N/Nc2ccc(F)cc2F)cc(OC)c1O`, which Potency is on record?
The Potency was inconclusive [inhibitor, single point].

Which “activity, negative = inhibition” value does the source give for `CC(=O)Nc1ccc(NC(=O)c2ccc(-n3c(C)ccc3C)cc2)cc1` here?
The value was inactive: 7.17%.

With `O=C(Nc1cccnc1)c1ccco1` as the molecule, how does the “activity, negative = inhibition” value read?
The value was inactive: 4.98%.

For `C#CC(=O)N(c1cccc(OC)c1)C(C(=O)NC1CCCC1)c1cccs1` (stereo unspecified), which Potency is on record?
Its Potency is active: 5.01 µM.

For `CCN(CC(=O)NCCc1ccc(Cl)cc1)Cc1nc2ccccc2c(=O)[nH]1`, which Potency is on record?
The Potency was inconclusive [inhibitor, single point].

With `CCOC(=O)c1c(C)c(C(=O)NCCc2ccccc2)c(C)n1C` as the molecule, how does the “activity, negative = inhibition” value read?
Its value is inactive: 7.73%.

Which Potency does the source give for `COc1ccccc1Oc1ccc(N/C=C/C(=O)c2ccc(C)o2)cc1` here?
Its Potency is inconclusive [inhibitor, single point].

Which Potency does the source give for `CCOC(=O)C1(CCc2ccccc2)CCN(C(=O)c2cccc(C)n2)CC1` here?
The Potency was inconclusive [activator, full curve].

Which Potency does the source give for `Cc1cc(C(=O)COC(=O)c2ccccc2Br)c(C)n1CC1CCCO1` (stereo unspecified) here?
Its Potency is active: 8.91 µM.

For `COCc1cc(C)nc2sc(C(=O)OC(C)C)c(N)c12`, which Potency is on record?
The Potency was inconclusive [inhibitor, single point].

With `CCOc1ccc(NS(=O)(=O)c2cc3c4c(c2)C(C)C(=O)N4CCC3)cc1` (stereo unspecified) as the molecule, how does the “activity, negative = inhibition” value read?
Its value is inactive: -3.17%.

With `CCn1c2ccccc2c2nnc(SCc3ccc(C(=O)OC)o3)nc21` as the molecule, how does the Potency read?
Its Potency is active: 12.6 µM.

For `Cc1csc(NC(=O)c2ccc3ccccc3n2)n1`, which Potency is on record?
The Potency was active: 7.08 µM.

For `CCc1nc(SCC(=O)Nc2nnc(CC)s2)c2c(=O)n(C)c(=O)n(C)c2n1`, which Potency is on record?
The Potency was inconclusive [inhibitor, single point].

With `N#Cc1cc2c(nc1SCC(=O)Nc1sc3c(c1C#N)CCC3)CCC2` as the molecule, how does the Potency read?
The Potency was inconclusive [inhibitor, single point].

With `Cc1ccccc1C(=O)NC(=S)N(C)C1CCCCC1` as the molecule, how does the Potency read?
Its Potency is active: 2.82 µM.

Which Potency does the source give for `O=C(Nc1ccc(F)cc1)c1ccccc1Oc1ccc(C(F)(F)F)cc1[N+](=O)[O-]` here?
Its Potency is inconclusive [inhibitor, single point].

For `Fc1ccc(NC(=S)N2CCN(c3cccc(C(F)(F)F)c3)CC2)cc1`, which Potency is on record?
The Potency was inconclusive [inhibitor, single point].

For `O=C(CNc1cccc([N+](=O)[O-])c1)N/N=C/c1ccc(F)cc1`, which “activity, negative = inhibition” value is on record?
The value was inactive: 1.1%.

For `CS(=O)(=O)c1ccc2nc(NC(=O)c3ccccc3)sc2c1`, which Potency is on record?
The Potency was inconclusive [inhibitor, single point].

With `Cc1cccc(OCCCCc2c(C)n[nH]c2C)c1` as the molecule, how does the Potency read?
The Potency was inconclusive [inhibitor, single point].

With `CCOc1ccc(NCc2nc3ccccc3n2CCOc2ccccc2)cc1` as the molecule, how does the Potency read?
Its Potency is inconclusive [inhibitor, single point].

With `Cc1cc(NC(=O)c2cccs2)ncc1NC(=O)C(C)(C)C` as the molecule, how does the Potency read?
The Potency was inconclusive [inhibitor, single point].

Which “activity, negative = inhibition” value does the source give for `CCn1cc(C(=O)O)c(=O)c2cnc(N3CCN(C(=S)NC(=O)c4ccc(Cl)cc4)CC3)nc21` here?
The value was inactive: -1.16%.

With `COc1ccc(C(=O)N/C(=C\c2cn(C)c3ccccc23)C(=O)OCC(C)C)cc1` as the molecule, how does the Potency read?
The Potency was inconclusive [activator, single point].

With `COc1cc(/C=C2/C(=O)ON=C2C)ccc1OCc1ccccc1F` as the molecule, how does the Potency read?
The Potency was inconclusive [inhibitor, single point].

With `Cc1cc(C)nc(Sc2ncnc(N)c2[N+](=O)[O-])n1` as the molecule, how does the Potency read?
The Potency was active: 8.91 µM.

With `COC(=O)/C=C/c1ccsc1NC(C)=O` as the molecule, how does the Potency read?
Its Potency is inconclusive [activator, single point].

With `COc1ccc(CCN(Cc2nc3ccccc3c(=O)[nH]2)C(=O)C2CC2)cc1` as the molecule, how does the Potency read?
The Potency was active: 12.6 µM.

With `O=C(NCc1ccccn1)C1CC(c2ccc(Cl)c(Cl)c2)=NO1` (stereo unspecified) as the molecule, how does the “activity, negative = inhibition” value read?
Its value is inactive: 0.455%.

With `O=C(Nc1ccc(N=Nc2ccccc2)cc1)c1cccc(Cl)c1` as the molecule, how does the Potency read?
The Potency was inconclusive [inhibitor, partial curve].

— PubChem BioAssay AID2546 (National Center for Advancing Translational Sciences (NCATS), 2010)
